# Assay results taken from the supplement of paper PMC3334620.
# The full ranking holds about 33,000 sequences; the median of “E-score (-0.5 to 0.5)” is about -0.04, and the highest 2% start at about 0.36. Some of the results follow.
# Biological target: T1, Hmlalpha2 (UniProt P0CY09)
# T1 sequence: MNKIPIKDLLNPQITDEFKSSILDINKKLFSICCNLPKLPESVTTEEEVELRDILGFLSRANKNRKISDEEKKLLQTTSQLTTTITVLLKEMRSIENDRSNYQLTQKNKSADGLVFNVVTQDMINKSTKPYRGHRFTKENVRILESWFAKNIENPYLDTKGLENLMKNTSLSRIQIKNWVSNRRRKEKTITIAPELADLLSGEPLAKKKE
# Experiment: PBM E-score (8-mer binding enrichment) (E-score (-0.5 to 0.5)); higher = stronger / more preferred TF binding; most listed sequences are background and not binding sites
# Details: protein concentration: 200 nM; construct: GST-full length
# Procedure, shortened: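 Full-length yeast transcription factors or their DNA-binding domains, GST-tagged and expressed with PURExpress, were applied at about 100-200 nM to universal all-10-mer Agilent arrays. These arrays had been made double-stranded by primer extension on fresh or once-stripped slides. Detection used fluorescent anti-GST, normalisation used masliner, and E-scores for ungapped eight-base words pooled with reverse complements came from the Universal PBM Analysis Suite.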
row,Sequence,PBM E-score
1,AAACGCGA,0.214
2,TGAGAACA,0.168
3,GAAGGGGC,-0.259
4,CGAAGTAC,0.117
5,AGTGATAT,-0.12
6,CATCGGCA,-0.103
7,CATCTTGG,-0.183
8,GGATTACA,0.444
9,CGAGAATA,-0.0428
10,ACACACAC,0.326
11,AGACCAAT,0.0163
12,AGGGCGGG,-0.0726
13,GCAGTACA,0.192
14,TACTTGAA,0.257
15,CAACGAAG,0.0201
16,CTACCAAG,-0.0171
17,AGCGTACT,-0.0394
18,AAGGCCAG,-0.159
19,ATATGTTG,0.346
20,GTCGAGAA,0.154
21,AGGTGCAA,-0.136
22,GGAAATCA,0.0188
23,CCCCAAAG,-0.185
24,ATGGACAG,-0.0548
25,GTGAAGAA,0.181

row,Sequence,PBM E-score
1,ATATCTCC,-0.269
2,CAGTAGCC,-0.249
3,AAATCGCT,-0.0533
4,AAGATCGC,0.0662
5,CCGGGAAG,-0.179
6,CCAATTTC,-0.134
7,CGATACAG,-0.176
8,AGAGTATG,-0.0146
9,ACACGTCC,0.236
10,CCGTCCGA,-0.283
11,AGGTTAAC,0.222
12,GAACGAAA,-0.193
13,CCGTAGCA,-0.122
14,CATTGACG,0.0323
15,CCAGTGGG,-0.211
16,ACCTTTGC,-0.0389
17,ATAGAGTC,-0.0378
18,GGTACTTA,-0.0559
19,ATTGCGGC,-0.186
20,CTTTGCCA,-0.16
21,AGTTTATC,0.17
22,CTGGAGGC,-0.353
23,ATTATCTG,0.0498
24,ACCGCAAA,-0.00922
25,AATTCTTA,0.0503

row,Sequence,PBM E-score
1,CCCGGGAA,-0.178
2,CCATCGTA,0.2
3,ATTCGGGA,-0.169
4,GACAGACA,0.00195
5,AACATGTC,0.333
6,CGACAACG,0.11
7,AACTGCGG,-0.197
8,ATTAACGA,0.317
9,AATAGAGG,-0.15
10,CCGCCGAG,-0.232
11,AAGTTTGG,0.0347
12,ATCTTACG,0.15
13,GTGTGTCA,0.307
14,ATTTCGGA,-0.00238
15,GGGTTTGA,-0.0684
16,GGACACGA,0.0799
17,CATCAGAA,0.0899
18,GAAACCCC,-0.15
19,AGGGCTGC,-0.234
20,CAGTCCTA,-0.0557
21,GAGTTGAC,0.122
22,GAGCCAAC,0.0802
23,CAGCGATG,-0.139
24,ACCGGACT,-0.286
25,CGCTTCCG,-0.144

row,Sequence,PBM E-score
1,AACTAGGC,-0.0208
2,AGCAAGAA,-0.0357
3,AGTTCCCG,-0.212
4,GTCTGCAC,-0.113
5,AGCTTAAG,-0.0389
6,CTTTGCTC,-0.0327
7,ATGGCCTG,-0.129
8,AAAGAGCC,-0.253
9,TAGCTGAA,0.0114
10,TACACTAA,0.22
11,ACCGCCCC,-0.149
12,ACATCACG,0.208
13,ATGAGATG,-0.0219
14,ACGGTCCA,-0.184
15,CCCCGCTC,-0.429
16,CGATCAAC,0.083
17,GCTATATA,0.0986
18,CCGCCAGC,-0.325
19,GGAAGAGA,-0.182
20,GAACGTCA,-0.0932
21,CGGTATTA,-0.025
22,ACAGATGG,-0.115
23,ATGGTCGA,-0.0159
24,AGGATGAC,-0.108
25,ACACGTGT,0.432

row,Sequence,PBM E-score
1,GGAGACTA,-0.152
2,ATTTCATG,0.05
3,GATATGGC,-0.467
4,AGACAGAA,-0.13
5,CTGTTGGA,-0.0729
6,CAGAAGGC,-0.288
7,CGAAATGA,-0.0152
8,CCGGGAGG,-0.273
9,ATTGAGTA,0.3
10,ATATCGCA,-0.168
11,AAGGACCA,-0.191
12,AGCGGGAT,-0.231
13,CTCCCTAC,-0.0396
14,GGGCGCAC,-0.242
15,GAACCGAC,-0.0907
16,CGGATAAC,0.19
17,CAGTATCC,-0.0503
18,AATATTAC,0.381
19,ACTCTGGC,-0.373
20,ATAAAATG,0.116
21,CGTGGTCA,0.00964
22,AGCGTCAA,0.077
23,GCGCGTTA,0.372
24,AGAGTCAT,-0.112
25,ATTGACGC,0.122

row,Sequence,PBM E-score
1,ACTTCGAA,0.055
2,TAAGGGGA,0.00312
3,ACCCCCAC,-0.262
4,ATAACAAT,0.241
5,ATCATCGG,-0.188
6,CCACAGAA,-0.00055
7,GAAAACGC,0.163
8,ATTGGGTA,-0.103
9,AACACGAT,0.439
10,AATCGCAC,-0.0358
11,ATTTATTC,0.0902
12,GGTACATA,0.141
13,GATCGATA,-0.0666
14,ACTAGAAC,0.0152
15,CTCATAGC,-0.224
16,ACTTGCCA,-0.0087
17,GAATTTTA,0.166
18,AGGGGGAT,-0.172
19,ATGTGAGG,0.107
20,ATTATAGA,0.0519
21,CACTTAGG,0.0592
22,CGGTTACG,0.0305
23,CAGGGGAG,-0.169
24,CTCTTCGC,-0.205
25,ACAATAAC,0.209

row,Sequence,PBM E-score
1,CCGGCGAC,-0.323
2,AGGGTTCC,-0.173
3,GCAACTCA,0.0124
4,TAGCCTGA,0.0493
5,CCGCATCC,-0.124
6,CTACCCAG,-0.138
7,ACAAAAGG,-0.107
8,CTGAAGCA,-0.13
9,ACGTAATA,0.431
10,GGCCCTTA,-0.227
11,GGGCGAAA,-0.0494
12,ATTCTGCC,-0.221
13,AATAGAAG,-0.0632
14,CAGAGACC,-0.156
15,AAGTTCTG,0.115
16,TAGCAGGA,-0.176
17,CTTAGAAA,0.0751
18,CTGCTCGC,-0.252
19,CTGGATAC,-0.0481
20,CTCGCCTC,-0.211
21,CGCGCGGA,-0.0877
22,AACCTCGG,-0.193
